Laboratory results from the supplement of paper PMC10126150.
Values marked as one replicate rest on one cluster of the flow cell; about a third of the high ones do not repeat.

Tested on: ATP
Assay: switch fluorescence ratio, 500 uM ATP over buffer (Cy3 cluster intensity, sum of 5 cycles each) (fold (ratio)); higher = stronger signal-on switching upon ATP binding; sequences stand for … in TCGTCGGCAGCGTCAGATGTGTATAAGAGACAGTTTTTTTTTTTTTTTTTTTTTTTTT…TC
Details: aptamer strand: ATP DNA aptamer (quencher-CACCTGGGGGAGTATTGCGGAGGAAGG + anchor), 100 nM annealed; ATP concentration: 500 uM; one replicate
How it was run: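 The fluorescence ratio divides summed target-cycle Cy3 intensity by summed buffer-cycle Cy3 intensity for each cluster and is averaged per switch-domain sequence. Cy3-labelled switching-strand clusters on a modified Illumina MiSeq flow-cell were annealed to 100 nM quencher-labelled ATP aptamer, then imaged in selection buffer and again after 15 min with 500 uM ATP at 22 °C. Five such cycles were run, with NaOH stripping and re-annealing between them, and clusters outside 100-1000 RFU were excluded.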
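Note: ATP exposure 15 min at 22 °C before imaging.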

**Q.** With ATGGGGTTT as the sequence, how does the switch fluorescence ratio read?
**A.** 0.982

**Q.** For ATGGGTAGAC, which switch fluorescence ratio is on record?
**A.** 1.04

**Q.** With ATGGGTCAC as the sequence, how does the switch fluorescence ratio read?
**A.** 1.02

**Q.** For ATGGGTCTG, which switch fluorescence ratio is on record?
**A.** 1.03

**Q.** For ATGGGTGTT, which switch fluorescence ratio is on record?
**A.** 1.02

**Q.** With ATGGTATGCC as the sequence, how does the switch fluorescence ratio read?
**A.** 1.06

**Q.** Which switch fluorescence ratio does the source give for ATGGTCGAGA here?
**A.** 1.02

**Q.** How did the switch fluorescence ratio turn out when ATGGTGAGGT was run?
**A.** 1

**Q.** For ATGGTTACGT, which switch fluorescence ratio is on record?
**A.** 0.962

**Q.** ATGGTTATCA was tested. Which switch fluorescence ratio did it give?
**A.** 1.01

**Q.** How did the switch fluorescence ratio turn out when ATGGTTCTGG was run?
**A.** 0.972

**Q.** Which switch fluorescence ratio does the source give for ATGTAAGGTC here?
**A.** 1.01

**Q.** ATGTAGATCG was tested. Which switch fluorescence ratio did it give?
**A.** 0.97

**Q.** With ATGTAGCGCG as the sequence, how does the switch fluorescence ratio read?
**A.** 0.977

**Q.** ATGTAGCTTG was tested. Which switch fluorescence ratio did it give?
**A.** 1.04

**Q.** For ATGTAGGAG, which switch fluorescence ratio is on record?
**A.** 0.971

**Q.** Which switch fluorescence ratio does the source give for ATGTAGGTCA here?
**A.** 1.03

**Q.** With ATGTATGGTC as the sequence, how does the switch fluorescence ratio read?
**A.** 0.993

**Q.** Which switch fluorescence ratio does the source give for ATGTATTCGG here?
**A.** 0.998

**Q.** How did the switch fluorescence ratio turn out when ATGTATTG was run?
**A.** 0.981

**Q.** ATGTCAACCC was tested. Which switch fluorescence ratio did it give?
**A.** 0.989

**Q.** Which switch fluorescence ratio does the source give for ATGTCATTGT here?
**A.** 1.02

**Q.** How did the switch fluorescence ratio turn out when ATGTCCCCTT was run?
**A.** 0.965

**Q.** Which switch fluorescence ratio does the source give for ATGTCCTCTG here?
**A.** 0.995

**Q.** How did the switch fluorescence ratio turn out when ATGTCGCGGA was run?
**A.** 0.967

**Q.** Which switch fluorescence ratio does the source give for ATGTCGTTG here?
**A.** 0.97

**Q.** Which switch fluorescence ratio does the source give for ATGTCTAGGT here?
**A.** 0.957

**Q.** ATGTGAAAGT was tested. Which switch fluorescence ratio did it give?
**A.** 1.05

**Q.** ATGTGACTAC was tested. Which switch fluorescence ratio did it give?
**A.** 0.995

**Q.** With ATGTGGACAG as the sequence, how does the switch fluorescence ratio read?
**A.** 1.05

**Q.** How did the switch fluorescence ratio turn out when ATGTGTCC was run?
**A.** 0.976

**Q.** For ATGTGTCGAA, which switch fluorescence ratio is on record?
**A.** 1.01

**Q.** Which switch fluorescence ratio does the source give for ATGTGTGCTA here?
**A.** 1.03

**Q.** With ATGTGTTAGA as the sequence, how does the switch fluorescence ratio read?
**A.** 1.06

**Q.** Which switch fluorescence ratio does the source give for ATGTGTTTCG here?
**A.** 1

**Q.** For ATGTTATTAC, which switch fluorescence ratio is on record?
**A.** 1.03

**Q.** ATGTTCACTA was tested. Which switch fluorescence ratio did it give?
**A.** 1.05

**Q.** How did the switch fluorescence ratio turn out when ATGTTCCAGA was run?
**A.** 0.979

**Q.** How did the switch fluorescence ratio turn out when ATGTTGTCTT was run?
**A.** 1.02

**Q.** With ATGTTTACCG as the sequence, how does the switch fluorescence ratio read?
**A.** 1.06

**Q.** How did the switch fluorescence ratio turn out when ATGTTTATTA was run?
**A.** 0.976

**Q.** Which switch fluorescence ratio does the source give for ATGTTTTCGT here?
**A.** 0.97

**Q.** How did the switch fluorescence ratio turn out when ATTAACCTC was run?
**A.** 1.07

**Q.** ATTAACGATA was tested. Which switch fluorescence ratio did it give?
**A.** 1.1

**Q.** With ATTAACGTCA as the sequence, how does the switch fluorescence ratio read?
**A.** 1.09

**Q.** For ATTAAGTACA, which switch fluorescence ratio is on record?
**A.** 1.35

**Q.** ATTAAGTTAA was tested. Which switch fluorescence ratio did it give?
**A.** 1.01

**Q.** For ATTAATAACT, which switch fluorescence ratio is on record?
**A.** 1.02

**Q.** Which switch fluorescence ratio does the source give for ATTAATGAGT here?
**A.** 1

**Q.** How did the switch fluorescence ratio turn out when ATTACAACGC was run?
**A.** 1.14

**Q.** How did the switch fluorescence ratio turn out when ATTACACCGA was run?
**A.** 1.05

**Q.** For ATTACCCCTT, which switch fluorescence ratio is on record?
**A.** 1.06

**Q.** ATTACCTAAC was tested. Which switch fluorescence ratio did it give?
**A.** 1.36

**Q.** With ATTACGCCTC as the sequence, how does the switch fluorescence ratio read?
**A.** 1.11

**Q.** ATTACGGAGG was tested. Which switch fluorescence ratio did it give?
**A.** 0.997

**Q.** How did the switch fluorescence ratio turn out when ATTACTACTG was run?
**A.** 1.06

**Q.** For ATTACTCAAT, which switch fluorescence ratio is on record?
**A.** 0.966

**Q.** With ATTACTGACA as the sequence, how does the switch fluorescence ratio read?
**A.** 1.12

**Q.** For ATTAGATAGG, which switch fluorescence ratio is on record?
**A.** 0.994

**Q.** ATTAGATATC was tested. Which switch fluorescence ratio did it give?
**A.** 0.972

**Q.** With ATTAGCCGTC as the sequence, how does the switch fluorescence ratio read?
**A.** 1.05

**Q.** Which switch fluorescence ratio does the source give for ATTAGCTAA here?
**A.** 1.02

**Q.** ATTAGGCCCT was tested. Which switch fluorescence ratio did it give?
**A.** 1.03

**Q.** ATTAGGCGGT was tested. Which switch fluorescence ratio did it give?
**A.** 0.982

**Q.** For ATTATACA, which switch fluorescence ratio is on record?
**A.** 1.03

**Q.** For ATTATATCTT, which switch fluorescence ratio is on record?
**A.** 1

**Q.** With ATTATATGTT as the sequence, how does the switch fluorescence ratio read?
**A.** 1.02

**Q.** For ATTATATTCG, which switch fluorescence ratio is on record?
**A.** 0.952

**Q.** Which switch fluorescence ratio does the source give for ATTATGAGA here?
**A.** 1.03

**Q.** Which switch fluorescence ratio does the source give for ATTATGCAGC here?
**A.** 1.04

**Q.** ATTATGTAG was tested. Which switch fluorescence ratio did it give?
**A.** 0.985

**Q.** With ATTATGTAGC as the sequence, how does the switch fluorescence ratio read?
**A.** 0.98

**Q.** How did the switch fluorescence ratio turn out when ATTATTCGTT was run?
**A.** 0.977

**Q.** How did the switch fluorescence ratio turn out when ATTATTGAAA was run?
**A.** 0.986

**Q.** For ATTATTTACA, which switch fluorescence ratio is on record?
**A.** 1.01

**Q.** For ATTATTTACC, which switch fluorescence ratio is on record?
**A.** 1.01

**Q.** How did the switch fluorescence ratio turn out when ATTCAAGTTG was run?
**A.** 0.979

**Q.** For ATTCACAGTA, which switch fluorescence ratio is on record?
**A.** 1.09

**Q.** How did the switch fluorescence ratio turn out when ATTCACGTTG was run?
**A.** 1.05

**Q.** ATTCAGAAGT was tested. Which switch fluorescence ratio did it give?
**A.** 1.01

**Q.** Which switch fluorescence ratio does the source give for ATTCAGACAA here?
**A.** 1.02

**Q.** For ATTCAGTTCT, which switch fluorescence ratio is on record?
**A.** 0.981

**Q.** ATTCATATTT was tested. Which switch fluorescence ratio did it give?
**A.** 1.01

**Q.** For ATTCATGCC, which switch fluorescence ratio is on record?
**A.** 1.02

**Q.** For ATTCATGCT, which switch fluorescence ratio is on record?
**A.** 0.994

**Q.** With ATTCATTTGC as the sequence, how does the switch fluorescence ratio read?
**A.** 0.959

**Q.** How did the switch fluorescence ratio turn out when ATTCCCCGGC was run?
**A.** 1.4

**Q.** Which switch fluorescence ratio does the source give for ATTCCCGGAA here?
**A.** 1.06

**Q.** ATTCCGAGTA was tested. Which switch fluorescence ratio did it give?
**A.** 1.11

**Q.** For ATTCCGCCTT, which switch fluorescence ratio is on record?
**A.** 1.27

**Q.** ATTCCGGCTT was tested. Which switch fluorescence ratio did it give?
**A.** 0.989

**Q.** Which switch fluorescence ratio does the source give for ATTCCTCAG here?
**A.** 1.31

**Q.** Which switch fluorescence ratio does the source give for ATTCCTTTAA here?
**A.** 0.987

**Q.** How did the switch fluorescence ratio turn out when ATTCGAAAGG was run?
**A.** 0.972

**Q.** ATTCGAGCAG was tested. Which switch fluorescence ratio did it give?
**A.** 1.04

**Q.** ATTCGATA was tested. Which switch fluorescence ratio did it give?
**A.** 0.984

**Q.** With ATTCGATCTG as the sequence, how does the switch fluorescence ratio read?
**A.** 1.05

**Q.** For ATTCGCACT, which switch fluorescence ratio is on record?
**A.** 1.09

**Q.** With ATTCGCGCGT as the sequence, how does the switch fluorescence ratio read?
**A.** 1.01

**Q.** For ATTCGGGTG, which switch fluorescence ratio is on record?
**A.** 1.21

**Q.** How did the switch fluorescence ratio turn out when ATTCGTTCCA was run?
**A.** 1.03
